Experimental data reported in PubChem BioAssay (Tox21).
Several values for one entry are separate records, joined by “and”; a condition that tells them apart may be missing. Identical values can stand only once. Inconclusive means that the source gave no clear call. Such entries were picked first, then a sample of the others. Where the call is inconclusive, the potency comes from a doubtful curve fit. Activity calls are given as the source filed them. Calls come from the whole dose curve; as a rule, active = well fitted curve in the direction sought with a large enough effect in the repeat runs; inconclusive = weak or mixed curves; inactive = no such curve, though single readings can be large; an effect the other way counts as inactive or inconclusive.

Assays:
[1] = qHTS RealTime-Glo MT Cell Viability Assay in HepG2 cells - 8 hour (AID 1224873); conditions: RealTime-Glo luminescence; series mostly up to 76.8 µM; note: nearly all actives have a fitted effect of over 55% in size
Method in brief: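 Real-time viability: cells seeded at 600 per well together with NanoLuc and cell-permeant prosubstrate, compounds added after 5 h incubation. Luminescence tracked at 0, 8, 16, 24, 32 and 40 h of exposure.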

[2] = A CellTox Green Cytotoxicity Assay to monitor cytotoxicity in HepG2 cells - 16 hour (AID 1224876); conditions: CellTox Green fluorescence; series mostly up to 76.8 µM; note: nearly all actives have a fitted effect of over 45% in size
Method in brief: (§1)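 Fluorescent DNA-binding dye, 600 HepG2 cells/well, 5 h preincubation then compound in DMSO; same plates read at 0–40 h, 37 C.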

[3] = qHTS RealTime-Glo MT Cell Viability Assay in HEK293 cells - 16 hour (AID 1224872); conditions: RealTime-Glo luminescence; series mostly up to 76.8 µM; note: nearly all actives have a fitted effect of over 50% in size
Method in brief: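 Luminescence generated by NanoLuc from substrate produced by living HEK293 cells served as the viability signal. Each value reflects the reading at its stated time point during continuous 40 h compound exposure at 37 C.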

[4] = A CellTox Green Cytotoxicity Assay to monitor cytotoxicity in HepG2 cells - 24 hour (AID 1224878); conditions: CellTox Green fluorescence; series mostly up to 76.8 µM; note: nearly all actives have a fitted effect of over 45% in size
Method in brief: as §1

[5] = qHTS RealTime-Glo MT Cell Viability Assay in HepG2 cells - 32 hour (AID 1224877); conditions: RealTime-Glo luminescence; series mostly up to 76.8 µM; note: nearly all actives have a fitted effect of over 55% in size
Method in brief: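 Tox21 10K library screened in qHTS format on HepG2 cells carrying RealTime-Glo reagents. Compounds were added after a 5 h preincubation, and the luminescent signal from continuous culture was measured repeatedly during 40 h treatment.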

[6] = A CellTox Green Cytotoxicity Assay to monitor cytotoxicity in HepG2 cells - 40 hour (AID 1224879); conditions: CellTox Green fluorescence; series mostly up to 76.8 µM; note: nearly all actives have a fitted effect of over 40% in size
Method in brief: as §1

[7] = qHTS RealTime-Glo MT Cell Viability Assay in HEK293 cells - 40 hour (AID 1224874); conditions: RealTime-Glo luminescence; max response: stronger effect = lower value; note: nearly all actives have a fitted effect of over 50% in size
Method in brief: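 Measured as luminescence from the same continuously cultured HEK293 wells at successive time points (0, 8, 16, 24, 32, 40 h) after compound addition. Reagent present from seeding; dosing at 5 h; incubation 37 C.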

[8] = A CellTox Green Cytotoxicity Assay to monitor cytotoxicity in HEK293 cells - 24 hour (AID 1224875); conditions: CellTox Green fluorescence; series mostly up to 76.8 µM; note: nearly all actives have a fitted effect of over 45% in size
Method in brief: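 Homogeneous no-lysis format: HEK293 cell suspension mixed with CellTox Green reagent, seeded, incubated 5 h at 37 C/5% CO2, then dosed by pintool with compound in DMSO.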
Potency is the fitted concentration of half-maximal effect; tags give direction and shape of the fitted curve.

For `C=C(C)C(=O)OCCC[Si](Cl)(Cl)Cl`, the Potency [1] was “inactive”.

With `CCCCCC(CC)OC(=O)CCCOc1ccc(Cl)cc1Cl` (stereo unspecified) the Potency [1] was inconclusive: 5.48 µM [falling, single point].

In the case of `CC(C)c1ccc(O)c(C(C)C)c1`, the Potency [1] is reported as inconclusive: 24.5 µM [falling, partial curve, poor fit] and the Potency [2] is reported as active: 43.6 µM.

With `CCCCCCCCCCCCN1CCOCC1` the Potency [1] was “inactive” and the Potency [2] was “inactive”.

In the case of `Cc1cc(C)c(/C=C2\C(=O)Nc3ccccc32)[nH]1`, the Potency [3] is reported as “inactive” and the Potency [4] is reported as active: 19 µM.

With `COc1ccccc1Oc1c(NS(=O)(=O)c2ccc(C(C)(C)C)cc2)nc(-c2ncccn2)nc1OCCO` the Potency [1] was “inactive”.

In the case of `c1cc(-c2ccncc2)ccn1`, the Potency [1] is reported as inconclusive: 21.9 µM [falling, single point] and the Potency [5] is reported as inconclusive: 21.9 µM [cytotoxic, single point].

With `Cc1ccc(CCn2c3c(c4cc(Cl)ccc42)CN(C)CC3)cn1` the Potency [3] was inconclusive: 6.74 µM [cytotoxic, full curve], the Potency [4] was inconclusive: 26.8 µM [activator, single point] and the Potency [6] was inconclusive: 26.8 µM [activator, single point].

For `NC(=O)c1ncn([C@@H]2O[C@H](CO)[C@@H](O)[C@H]2O)n1`, the Potency [1] was “inactive” and the Potency [7] was inconclusive: 57.9 µM [cytotoxic, single point].

With `COc1cc(C(C)=O)ccc1OCCCN1CCC(c2noc3cc(F)ccc23)CC1` the Potency [3] was active: 7.56 µM, the Potency [5] was inconclusive: 23.9 µM [cytotoxic, partial curve, poor fit] and the Potency [4] was inconclusive: 26.8 µM [activator, single point]. The Potency [6] was inconclusive: 26.8 µM [activator, single point].

For `C=CCCC(=O)/C=C/C1C(C)=CCCC1(C)C` (stereo unspecified), the Potency [1] was “inactive” and the Potency [8] was active: 34.7 µM.

In the case of `C(=C(c1ccccc1)c1ccccc1)c1ccccc1`, the Potency [1] is reported as “inactive”.

In the case of `CCN(CC)C(=O)c1cc(S(=O)(=O)Cc2ccccc2)c(N2CCC(c3ccccc3)CC2)cc1N(CC)CCN(C)C`, the Potency [1] is reported as active: 17.2 µM, the Potency [8] is reported as active: 19.3 µM and the Potency [6] is reported as active: 13.6 µM.

For `COC1=C(OC)C(=O)C(CCCCCCCCCCO)=C(C)C1=O`, the Potency [1] was inconclusive: 19 µM [falling, partial curve].

With `O=C1OCCN1/N=C/c1ccc([N+](=O)[O-])o1` the Potency [1] was inconclusive: 23.9 µM [falling, partial curve, poor fit].

In the case of `Cc1cccc(C)c1NC(=O)CN1CCN(CCCC(c2ccc(F)cc2)c2ccc(F)cc2)CC1`, the Potency [1] is reported as inconclusive: 19 µM [falling, partial curve], the Potency [8] is reported as inconclusive: 19 µM [activator, partial curve, poor fit] and the Potency [2] is reported as active: 26.8 µM. The Potency [5] was active: 23.9 µM and the Potency [6] was active: 23.9 µM.

With `C1CCN(CN2CCCCC2)CC1` the Potency [3] was “inactive” and the Potency [4] was “inactive”.

For `CC(C)CCCC(C)CCO` (stereo unspecified), the Potency [1] was “inactive”, the Potency [2] was inconclusive: 54.9 µM [activator, partial curve, poor fit] and the Potency [4] was inconclusive: 49 µM [activator, partial curve].

With `CC(C(=O)O)c1ccc(CC2CCCC2=O)cc1` (stereo unspecified) the Potency [1] was “inactive”.

In the case of `NC(=O)N1c2ccccc2C=Cc2ccccc21`, the Potency [3] is reported as inconclusive: 43.4 µM [cytotoxic, partial curve, poor fit] and the Potency [6] is reported as inconclusive: 54.7 µM [activator, single point].

With `CN(C)c1ccc2nc3ccc(=[N+](C)C)cc-3sc2c1` the Potency [1] was active: 9.39 µM and active: 19.5 µM and active: 19 µM.

With `Nc1ccc2cc3ccc(N)cc3nc2c1` the Potency [1] was inconclusive: 54.9 µM [falling, single point], the Potency [8] was active: 43.6 µM and active: 21.3 µM and the Potency [2] was active: 49 µM and active: 21.3 µM. The Potency [5] was inconclusive: 5.49 µM [cytotoxic, full curve] and inconclusive: 8.49 µM [cytotoxic, full curve].

With `CCC1COC(=O)O1` (stereo unspecified) the Potency [1] was “inactive”.

With `COc1ccc2c(c1)c(CC(=O)OC/C=C(\C)CC/C=C(\C)CCC=C(C)C)c(C)n2C(=O)c1ccc(Cl)cc1` the Potency [1] was inconclusive: 21.3 µM [falling, partial curve, poor fit].

For `CCCCCCCCCCCCCCCCCC(=O)OCC(O)CO` (stereo unspecified), the Potency [1] was “inactive”.

With `Cc1ccc2c(n1)Oc1ccc(C(C)C(=O)OCC(=O)N(C)C)cc1C2` (stereo unspecified) the Potency [3] was inconclusive: 19 µM [cytotoxic, partial curve] and the Potency [6] was “inactive and inconclusive: 15.1 µM [activator, single point]”.
